Measured values published in the supplement of paper PMC10126150.
Values marked as one replicate rest on one cluster of the flow cell; about a third of the high ones do not repeat.

Tested on: ATP
Assay: switch fluorescence ratio, 500 uM ATP over buffer (Cy3 cluster intensity, sum of 5 cycles each) (fold (ratio)); higher = stronger signal-on switching upon ATP binding; sequences stand for … in TCGTCGGCAGCGTCAGATGTGTATAAGAGACAGTTTTTTTTTTTTTTTTTTTTTTTTT…TC
Conditions: aptamer strand: ATP DNA aptamer (quencher-CACCTGGGGGAGTATTGCGGAGGAAGG + anchor), 100 nM annealed; ATP concentration: 500 uM; one replicate
Procedure, shortened: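 Five buffer/ATP imaging cycles were run on Cy3-labelled switching-strand clusters on a modified Illumina MiSeq flow-cell, with NaOH stripping and re-annealing between cycles. In each cycle, clusters annealed to 100 nM quencher-labelled ATP aptamer were imaged in selection buffer, then after 15 min with 500 uM ATP at 22 °C. Per cluster, the fluorescence ratio is summed target-cycle over summed buffer-cycle Cy3 intensity, averaged per switch-domain sequence. Only clusters within 100-1000 RFU were kept.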
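Also: ATP exposure 15 min at 22 °C before imaging.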

| Sequence | switch fluorescence ratio |
| --- | --- |
| GGTAATGGGC | 0.999 |
| ATGAACTGC | 0.978 |
| CAAATTTTA | 0.997 |
| GAAATGCGGA | 1.04 |
| TCAACCCATT | 1.02 |
| TAAACTCTTC | 1.01 |
| CTATTATACT | 1.02 |
| CCAAAATCTC | 1.41 |
| CATGGGTCGC | 1.02 |
| GAAGGAATTG | 1.03 |
| AGTGAATCGT | 0.968 |
| CGATTGTAAA | 0.991 |
| TCAGACTGAA | 1.03 |
| ATCAGCGGCG | 0.967 |
| ATGTAGGGCA | 1.01 |
| ACTATGAGGC | 0.984 |
| CTGGGAGTTC | 0.975 |
| TTCCATATT | 1.02 |
| TTCTTGGCCT | 1.01 |
| TTAGCGTCG | 1.01 |
| CGATTGGGCG | 1.05 |
| GATTTCTCGC | 0.979 |
| ACTTTGGTGA | 0.976 |

| Sequence | switch fluorescence ratio |
| --- | --- |
| GGAGGCACGG | 0.959 |
| GATTACTAAG | 0.981 |
| GCCTCTTCCG | 1.06 |
| AGTTAGGCGA | 1 |
| ACGGCTCATT | 1.01 |
| CGCGCAGGGT | 1.01 |
| AAGCAACTTG | 1.06 |
| CTGGAGGCAT | 1.51 |
| GCAGTTACGA | 1.41 |
| CTTCCAGGAT | 1 |
| AACATGATCA | 1 |
| AGCTGGTCGA | 1.01 |
| TGCGAGCGAG | 1.06 |
| TGTTGAGTGG | 1 |
| GAATAGGGCA | 0.971 |
| GGCGTGAGGT | 0.969 |
| CAGGAAAATC | 1.02 |
| TTGTGCAGTC | 1.46 |
| GATGGTACTA | 0.948 |
| AGACCTGACT | 1.84 |
| ACTCAAGATT | 1.04 |
| CAGGGACTA | 1.01 |
| CTATTAACT | 1.05 |

| Sequence | switch fluorescence ratio |
| --- | --- |
| GTGAGTCGGT | 0.927 |
| CTGCAGGCAG | 1 |
| GCTAACGGGA | 1.03 |
| AACAGACATT | 1.06 |
| TTGGTACTAA | 1.04 |
| CAACTTCAAT | 1.03 |
| CTGTGCGCTC | 1.25 |
| TTCCCGTGAT | 1.07 |
| CGTTGACCAC | 1.04 |
| GTGCATGGTG | 1.04 |
| TCAATCCTGG | 1.02 |
| TAGGCTTCCC | 1.1 |
| AGCCTACTGG | 1.01 |
| AGAGACATAA | 1.01 |
| CATTTGACGA | 1.01 |
| TTCGAGACCC | 1 |
| TGGGCACGCT | 0.998 |
| AAATGGAGCA | 1.05 |
| GGCGCAATTA | 3.04 |
| TGGAGCATGT | 1.16 |
| TAGTACGAGA | 0.974 |
| CGTTGAGAAC | 0.981 |
| TGCCGTACTA | 1.02 |

| Sequence | switch fluorescence ratio |
| --- | --- |
| CTGCGAGACT | 2.87 |
| GTGTGTGAGT | 1.01 |
| TTTGTGCTCG | 1.03 |
| CTCAAGGATA | 1.07 |
| GTCATAGCCA | 1.04 |
| CGCTAGTCTT | 1.07 |
| ATTCAAGCCA | 1.04 |
| GAAGCTATTT | 1.04 |
| CGTATTGTT | 0.981 |
| ACGGATTTTT | 1.01 |
| AATAACAGAC | 1.08 |
| CCGGGTTGT | 1.05 |
| CGTAAAGCCG | 0.943 |
| AAGGATTTTA | 0.96 |
| TCCTGTTTAT | 1.04 |
| GTGTCTCTTA | 1.08 |
| GCTTAGAATA | 1.01 |
| TGTGATGAAG | 0.937 |
| TTCTATCTTT | 0.973 |
| ACGGGAGCCC | 0.975 |
| AAATTATCCG | 0.979 |
| ACCATTGGCT | 0.994 |
| GTGCGATGCA | 1.05 |

| Sequence | switch fluorescence ratio |
| --- | --- |
| TCGTTAACGG | 0.99 |
| AGCAAGTTAC | 3.68 |
| GGATCATGCG | 0.999 |
| ACTTGTATAC | 1.12 |
| GCGTAATAAA | 1.01 |
| TTTGAGAAAC | 0.968 |
| GTAATAGATC | 0.978 |
| CTTCAGGAA | 1.04 |
| CTAGGGGGAA | 1.02 |
| AGAAGATCGC | 0.952 |
| GGGCTTGCTA | 1.02 |
| CGCTCCAGTG | 1.54 |
| CTGTGGATG | 0.996 |
| GTTCCGGGGG | 1.12 |
| ATTCGTCCAT | 1.01 |
| TTGGTTCTAG | 1.03 |
| GCGATTGACT | 1.07 |
| ATCGTAGTC | 1.03 |
| TTTTCCCCT | 1.03 |
| TTCTAGGGGC | 1.2 |
| GTGGATGATG | 0.985 |
| GGGCATGTAT | 1.01 |
| ATACCACTTT | 1.06 |

| Sequence | switch fluorescence ratio |
| --- | --- |
| TTGTTGATGA | 0.995 |
| TCTTTTTAAA | 1.09 |
| CTTCGTTTAA | 1.05 |
| CAGGGTACCA | 0.95 |
| AGGAGAGACA | 1.06 |
| ACAGCGACTA | 1.08 |
| GAATGTCAGG | 0.985 |
| AGGTAAACCA | 1.05 |
| TTACATTAGT | 0.989 |
| ATGCGTTGG | 1.03 |
| GCTATTAGCT | 1.03 |
| TAAAGAGACT | 1.03 |
| TTGACGGGG | 0.973 |
| AAGGTAGTGA | 1.03 |
| CCAAGGCATA | 3.77 |
| TGACAAGGAA | 1.07 |
| CGGGTCGGCT | 0.959 |
| ATGTCAATTA | 0.989 |
| TGCTTGGGCA | 0.986 |
| GTTCGTAGGT | 0.978 |
| TTTTGTCTT | 1.01 |
| CTTAGAGGCC | 0.983 |
| TGGTACTCCT | 1.09 |

| Sequence | switch fluorescence ratio |
| --- | --- |
| CGGCTTCTGA | 1.02 |
| AAAAGGACGC | 1.08 |
| ACGACAGATA | 1.08 |
| TCGGACGTTT | 1.02 |
| TGCGTCCTC | 0.983 |
| CCTTGGCTTA | 1.5 |
| ACTGTTGCGG | 0.978 |
| TAAGGCGCA | 1 |
| GTCACGGGGT | 1.02 |
| AGGACTTAAG | 1.12 |
| CAGTTAGCCA | 1.01 |
| CTAGTGATGG | 0.973 |
| CGTGTCGGTT | 0.986 |
| ACGAAGTATA | 0.989 |
| GGTTTTTGC | 0.998 |
| AACAACCCGA | 1.02 |
| GGGAAATCAA | 1.01 |
| TTTCTAAGCG | 1.01 |
| CTTCTCACTT | 0.962 |
